Several values for one entry are separate records, joined by “and”; a condition that tells them apart may be missing. Equal entries are not always repeated. The list shows a part of the results. The main result of the screen is listed elsewhere. These columns were measured beside it and carry no call.
Key:
Test in all cases: Primary Screen for Target Class Profiling of Small Molecule Inhibitors of Methyltransferases
[1] = molecular target: Glycine N-methyltransferase (Homo sapiens) (UniProt Q14749); settings: purified enzyme, MTase-Glo SAH luminescence; measured here: GNMT inhibition; at 40 µM; stronger effect = lower value
How it was run: (§1)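 Each enzyme was assayed with SAM and its substrate. SAH formation detected by MTase-Glo luminescence; single-point 40 uM screen[…].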

[2] = molecular target: Guanidinoacetate N-methyltransferase (Homo sapiens) (UniProt Q14353); settings: purified enzyme, MTase-Glo SAH luminescence; measured here: GAMT inhibition; at 40 µM; stronger effect = lower value
How it was run: as §1

[3] = molecular target: Histamine N-methyltransferase (Homo sapiens) (UniProt P50135); settings: purified enzyme, MTase-Glo SAH luminescence; measured here: HNMT inhibition; at 40 µM; stronger effect = lower value
How it was run: as §1

[4] = molecular target: Nicotinamide N-methyltransferase (Homo sapiens) (UniProt P40261); settings: purified enzyme, MTase-Glo SAH luminescence; measured here: NNMT inhibition; at 40 µM; stronger effect = lower value
How it was run: as §1

[5] = molecular target: Phenylethanolamine N-methyltransferase (Homo sapiens) (UniProt P11086); settings: purified enzyme, MTase-Glo SAH luminescence; measured here: PNMT inhibition; at 40 µM; stronger effect = lower value
How it was run: as §1
% is scaled to controls: 0 for no effect and ±100 for the full control effect.

Structure (SMILES)	activity change, negative = inhibition [1]	activity change, negative = inhibition [2]	activity change, negative = inhibition [3]	activity change, negative = inhibition [4]	activity change, negative = inhibition [5]
O=S(=O)(c1ccc(F)cc1)c1nnn2c1nc(Nc1ccc(F)cc1)c1ccccc12	-0.596%	0%	6.76%	2.93%	1.34%
CC(C)Oc1ccc(CN2C(=O)c3nc4ccccc4n3CC2(C)C(=O)NC2CCCCC2)cc1 (stereo not drawn)	-1.66%	3.76%	3.62%	-1.21%	-3.73%
O=C1CCC(C(=O)N2CCSCC2)CN1CCc1cccc(F)c1 (stereo not drawn)	-2.92%	-4.94%	-2.14%	-9.46%	-6.25%
CCc1ccccc1NC(=O)CSc1nnc2n(CCC(C)C)c(=O)c3ccccc3n12	-6.25%	3.83%	3.85%	-20%	-2.46%
CC(C)(C(=O)O)c1cnc(N2CC[C@H](CO)[C@H](O)C2)nc1N1CCOCC1	-3.53%	-4.44%	-0.424%	-11.1%	-6.7%
C[C@H]1[C@H](C)CC[C@]2(C(=O)OC3OC(CO)C(O)C(O)C3O)CC[C@]3(C(=O)O)C(=CCC4[C@@]5(C)CC[C@H](O[C@@H]6O[C@@H](C)[C@H](OC7OC(CO)C(O)C(O)C7O)[C@@H](O)[C@H]6O)C(C)(C)C5CC[C@]43C)[C@H]12 (stereo partly drawn)	-4.41%	1.03%	7.62%	-13.8%	-8.53%
COc1cccc(CN2C(=O)c3cc4ccccc4n3CC2(C)C(=O)NC2CCCC2)c1 (stereo not drawn)	-1.66%	1.21%	-3.31%	-7.91%	-3.56%
CC(C)=CCC[C@@](C)(O)[C@H]1CC[C@]2(C)[C@@H]1[C@H](O)CC1[C@@]3(C)CC[C@H](O[C@@H]4O[C@H](CO)[C@@H](O)[C@H](O)[C@H]4O[C@@H]4O[C@H](CO)[C@@H](O)[C@H](O)[C@H]4O)C(C)(C)[C@@H]3CC[C@]12C (stereo partly drawn)	4.83%	22%	10.3%	7.08%	11%
CN1CC[C@H](N(Cc2ccccc2)Cc2ccccc2)C[C@H](O)C1	-9.88%	-13.7%	-8.64%	-20%	-13.5%
C=CCn1c(=O)c2ccc(C(=O)NCC(C)C)cc2n2c(=O)n(CC(=O)Nc3ccc(F)cc3)nc12	0.799%	2.02%	2.9%	-3.38%	-0.556%
Cc1ccsc1C(=O)N1CC(Oc2ccccc2-c2nc(-c3cnccn3)no2)C1	-11.4%	-7.43%	-6.69%	-15.2%	-8.65%
COc1cc(OC)cc(C(=O)Nc2ccc3nc(Nc4cccc(C(F)(F)F)c4)cc(C)c3c2)c1		-6.43%		-20.5%	-4.36%
Nc1c(S(=O)(=O)c2ccccc2)c2nc3ccccc3nc2n1-c1ccc(F)cc1	-8.47%	-10.9%	4.5%	-24.3%	-8.12%
COC1(C2=NCCN2)COc2ccccc2O1 (stereo not drawn)	6.34%	10.4%	11.1%	-6.4%	-3.74%
Cc1ccc(Cn2c(=O)c3ccccc3n3c(SCC(=O)Nc4cccc(C)c4)nnc23)cc1	0.867%	3.43%	3.66%	1.56%	3.12%
C=CCn1c(=O)c2ccc(C(=O)NC(C)C)cc2n2c(=O)n(CC(=O)NC(C)C)nc12	7.93%	0%	7.51%	2.53%	5.95%
COc1ccccc1CNC(=O)C1c2c(n(C)c3ccccc23)SCC(=O)N1Cc1cccs1 (stereo not drawn)	8.95%	1.18%	0.933%	2.82%	4.69%
Cc1ncc(-c2ccnc(Nc3ccc(S(C)(=O)=O)cc3)n2)n1C(C)C	-10.1%	0.212%	0.523%	-17.8%	2.23%
CC(C)Cn1c(=O)c2ccccc2n2c(CCC(=O)N3CCN(c4ccccc4)CC3)nnc12	-15.9%	4.61%	-7.51%	-34%	-6.13%
COCCC1(N(C)C)CCN(C(=O)c2ccnn2C)CC1	-2.6%	-1.66%	-1.64%	-6.57%	-3.66%

Structure (SMILES)	activity change, negative = inhibition [1]	activity change, negative = inhibition [2]	activity change, negative = inhibition [3]	activity change, negative = inhibition [4]	activity change, negative = inhibition [5]
Cc1cccc(C(=O)N2C[C@H]3OC(=O)N(CCCN4CCOCC4)[C@H]3C2)c1	-2.8%	-2.57%	-1.79%	-8.98%	-0.503%
O=C(CC1CCCC1)N1CCCC(c2nn[nH]n2)C1 (stereo not drawn)	1.32%	2.22%	2.44%	-4.12%	14.2%
Cc1nc2c3ccccc3n3c(CCCC(=O)NCCc4ccccc4)nnc3n2n1	-7.44%	0%	2%	10.4%	-2.31%
CCc1ccc(-c2nc(CSCC(=O)NCCc3ccccc3)c(C)o2)cc1	-4.33%	-5.56%	-4.22%	-29.5%	-22.9%
CC1(C(=O)NC2CCCCCC2)Cn2c(ccc2-c2ccco2)C(=O)N1Cc1ccc(Cl)cc1 (stereo not drawn)	-8.04%	4.36%	3.19%	-10.8%	-0.398%
COCCN1C[C@H]2CN(C(=O)C3CCC3)C[C@@]2(C(=O)O)C1	-0.577%	3.02%	1.38%	3.29%	2.31%
Nc1nc(NCc2ccc(Cl)cc2Cl)cc(C2CC(O)C2)n1 (stereo not drawn)	-7.77%	-8.78%	-62%	-45.3%	-9.47%
CCCC1c2cccn2CCN1C(=O)Nc1ccccc1Br (stereo not drawn)	3.36%	1.15%	-42.6%	3.62%	9.06%
Cc1ccc(-c2nnn3c2nc(NCc2ccccc2)c2ccccc23)cc1	0.807%	0%	3.19%	10.9%	-1.95%
CCOc1ccccc1CN1C(=O)c2cc3ccccc3n2CC1(C)C(=O)NCc1ccccc1 (stereo not drawn)	3.13%	4.94%	5.69%	0.544%	-0.452%
COc1ccc(-c2n[nH]n3c2nc(=O)c2ccc(C(=O)NCc4ccc(C)cc4)cc23)cc1	0.682%	0%	9.83%	5.14%	4.2%
Cn1cc(CCC(=O)N[C@@H]2CCOC[C@H]2Oc2ccc(C(=O)O)cc2)cn1	0.061%	-4.18%	-1.73%	-3.56%	-22.5%
CCN1C(=O)c2c(C(=O)NCCc3cccc(C)c3)ncn2CC1(C)C(=O)NC1CCCC1 (stereo not drawn)	-1.33%	0.207%	8.89%	4.56%	7.47%
CC(=O)Nc1c2n(c3ccc(F)cc13)CC(C)(C(=O)NCCC(C)C)N(C1CCCCCC1)C2=O (stereo not drawn)	0.567%	0.802%	3.64%	-5.8%	-0.642%
CC1CCCC(C)N1CCCN1C(=O)c2cc3occc3n2CC1(C)C(=O)NC1CCCCC1 (stereo not drawn)	-4.73%	0%	-3.72%	7.4%	-2.05%
CC(C)(C)CN1CCC2(CC1)COc1ccccc1[S+](=O)([O-])N2	-3.71%	-4.27%	-3.72%	-10.7%	6.37%
Nc1cc(=O)[nH]c(N)n1	3.21%	15.4%	11.8%	-4.63%	2%
OCC(O)CCO/N=C1/C(c2c(O)[nH]c3ccccc23)=Nc2ccccc21 (stereo not drawn)		-22.7%		-29.9%	-21%
COc1c2c(c(C)c3c1C(=O)OC3)O[C@@]1(C)CCC3(C(C)(C)O)OC(=O)CC[C@]3(C)[C@H]1C2 (stereo partly drawn)	-7.7%	-8.35%	-6.84%	-19%	-0.566%
N[C@@H](Cc1c[nH]c2ccccc12)C(=O)O	-12.7%	0.339%	-5.69%	-9.63%	-9.63%

Structure (SMILES)	activity change, negative = inhibition [1]	activity change, negative = inhibition [2]	activity change, negative = inhibition [3]	activity change, negative = inhibition [4]	activity change, negative = inhibition [5]
CCCn1c(=O)c2ccc(C(=O)NC(C)C)cc2n2c(=O)n(CC(=O)Nc3ccc(C)cc3Cl)nc12	5.73%	0%	-2.19%	3.75%	2.83%
CCOC(=O)c1cccc(NS(=O)(=O)c2ccc3c(c2)n(C)c(=O)n3C)c1	-4.05%	2.42%	-10.7%	-8.95%	-7.86%
CN[C@@H]1[C@@H](O)[C@@H](O[C@@H]2[C@@H](O)[C@H](O[C@H]3O[C@@H]([C@@H](C)NC)CC[C@H]3N)[C@@H](N)C[C@H]2N)OC[C@]1(C)O	4.58%		2.13%		
CN1CC2(CCOC2)N(C2CCN(C(=O)C3CCCC3)CC2)C1=O (stereo not drawn)	-2.75%	-9.08%	-4.12%	-12.2%	-9.56%
CC1CCN(CCCNC(=O)CCc2nnc3n(Cc4ccccc4Cl)c(=O)c4ccccc4n23)CC1	-4.73%	0.234%	-60.4%	0.425%	-4.51%
CCc1cccc(NS(=O)(=O)c2ccc3[nH]c(=O)[nH]c3c2)c1	0.346%	0.954%	2.93%	-4.95%	-11.4%
CCOc1ccccc1CN1C(=O)c2c(C(=O)OC)ncn2CC1(C)C(=O)NC1CCCC1 (stereo not drawn)	-2.58%	3.49%	-0.314%	6.83%	-1.64%
CCCn1c(=O)c2ccccc2n2c(=O)n(CC(=O)c3ccc(OC)cc3)nc12	-3.06%	6.05%	5.97%	-5.68%	1.69%
CCOc1ccc(CCNC(=O)c2cc3sc(Cl)cc3n2C)cc1OCC	4.58%	-1.87%	13.1%	-15.3%	-6.3%
Cc1cc2ncc(C(=O)N3CCN(c4ncccn4)CC3)cn2n1	-3.9%	-2.22%	-0.266%	-7.22%	-2.76%
C/C=C/C=C/[C@@H]1O[C@](O)([C@H](CC)C(=O)NC/C=C/C=C(\C)[C@@H](OC)[C@@H](C)[C@@H]2O[C@H](/C=C/C=C/C=C(\C)C(=O)c3c(O)ccn(C)c3=O)[C@H](O)[C@@H]2O)[C@H](O)[C@H](O)C1(C)C	-0.426%	-1.02%	-3.55%	-12.9%	1.95%
CS(=O)(=O)c1ccc(-n2nc(C(F)(F)F)cc2-c2ccc(F)cc2)cc1	4.57% and 1.26%	13.2% and -0.675%	10.8% and 5.45%	-5.88% and -14%	1.18% and -0.967%
O=C(O)[C@@H]1CN(C(=O)CCCc2cn[nH]c2)C[C@H]1c1ccc2c(c1)OCO2	-5.96%	-8.79%	-2.03%	-13.9%	-10.2%
COCCOC1CCN(C(C(=O)O)c2ccc(OC)c(F)c2)CC1 (stereo not drawn)	-4.18%	-3.73%	-1.73%	-7.74%	-13.1%
COc1ccc(CNC(=O)CCn2ccc3cc(S(=O)(=O)N4CCCCC4)ccc32)cc1OC	-2.3%	0.877%	-2.99%	0.901%	0.365%
Cc1ccc(N2C(=O)c3cc4sccc4n3CC2(C)C(=O)NC2CCC(C)CC2)cc1C (stereo not drawn)	2.56%	0%	0.133%	0.525%	-3.81%
CCc1cc2c(cc3n2CC(C)(C(=O)NC2CCCCCC2)N(c2ccc(C)c(C)c2)C3=O)s1 (stereo not drawn)	2.95%	0%	4.54%	5.99%	2.72%
O=C(CC1CCOC2(CCN(S(=O)(=O)c3ccc(F)cc3)CC2)C1)N1CCOCC1 (stereo not drawn)	2.44%	0.112%	6.56%	3.87%	1.83%
